The list shows a part of the results. At the low end of the ranking, values are background and their order means little.
System: T1, GST-NbGlk1(82-244)
T1 sequence: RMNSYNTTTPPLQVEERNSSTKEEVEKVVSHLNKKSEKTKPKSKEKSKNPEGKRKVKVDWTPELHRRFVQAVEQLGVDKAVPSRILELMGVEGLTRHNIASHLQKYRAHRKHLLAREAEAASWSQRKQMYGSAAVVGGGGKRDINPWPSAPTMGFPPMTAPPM
Assay: protein-binding microarray;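 note: rank-based score ranging −0.5 to +0.5 with E above 0.45 taken as significant binding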
Conditions: NbGlk1 is a Golden2-like transcription factor of Nicotiana benthamiana; high values mean tight binding; most listed sequences are background and not binding sites; double strand, one strand shown

Row | Sequence | binding signal
1 | AGCACGAA | 0.0207 E-score
2 | AGCCGACC | -0.231 E-score
3 | AGACACTC | -0.174 E-score
4 | ATAGAGCG | -0.129 E-score
5 | AGGATCCC | 0.322 E-score
6 | ATTATTAA | 0.205 E-score
7 | ACCATCCT | -0.178 E-score
8 | ATATGCCA | 0.156 E-score
9 | ATGAAAAG | 0.125 E-score
10 | AAAATGTT | 0.0874 E-score
11 | ATCTTGAA | 0.286 E-score
12 | ACTCAATA | 0.112 E-score
13 | ACGTTTAA | -0.0543 E-score
14 | ACTAGTGA | -0.0419 E-score
15 | AACCGTAA | 0.109 E-score
16 | CACTGACA | -0.135 E-score
17 | ATTCGAGA | 0.204 E-score
18 | AGATCCAG | 0.261 E-score
19 | CAGCCGCG | -0.139 E-score
20 | ACGCTTAA | -0.132 E-score
21 | AAGGGTCC | -0.262 E-score
22 | AGCAGCGG | -0.262 E-score
23 | ATAAACAG | -0.048 E-score
24 | ATCGAATC | 0.354 E-score
25 | AGTAAAGA | 0.0222 E-score

Row | Sequence | binding signal
26 | AACCCAGA | 0.129 E-score
27 | AACATACC | -0.0214 E-score
28 | ACGAAATA | 0.246 E-score
29 | AAGTTTTG | -0.00715 E-score
30 | ATAGAAGC | -0.129 E-score
31 | AGAACTCC | -0.256 E-score
32 | AGGAACCC | -0.213 E-score
33 | AGCTCCTA | -0.154 E-score
34 | ACTGTCAC | -0.162 E-score
35 | ATTCGATC | 0.207 E-score
36 | ATTGTAGA | 0.15 E-score
37 | AGACTATA | 0.0501 E-score
38 | AAACCACG | -0.0506 E-score
39 | AGTATTGG | -0.119 E-score
40 | ATTCGTTC | 0.137 E-score
41 | CACGTAAG | 0.104 E-score
42 | ATTCTACG | 0.188 E-score
43 | ACATGGGT | -0.171 E-score
44 | ACAGACGT | -0.0765 E-score
45 | AACGCTAA | 0.0407 E-score
46 | ACAAGCCA | -0.229 E-score
47 | AATCCTAC | 0.343 E-score
48 | AGTTTGAA | -0.0387 E-score
49 | AAACAGCC | -0.201 E-score
50 | AGCATTAG | -0.111 E-score

Row | Sequence | binding signal
51 | ATTGCCGG | 0.005 E-score
52 | ATATTGCA | 0.225 E-score
53 | ACAGATTG | 0.359 E-score
54 | ATCTGCCC | 0.218 E-score
55 | CAATTAGG | 0.0775 E-score
56 | ATCTACCA | 0.253 E-score
57 | AGGGGCAT | -0.158 E-score
58 | ACCCGTTA | -0.144 E-score
59 | ATGGACGA | -0.109 E-score
60 | ATGCATGC | -0.224 E-score
61 | AGCTGTCG | -0.0742 E-score
62 | AAGCCAGT | -0.0326 E-score
63 | AAGCAATT | 0.108 E-score
64 | AGATGGAG | -0.117 E-score
65 | AGTCCACT | -0.179 E-score
66 | CACATCTG | -0.0699 E-score
67 | ATGAGAGG | -0.189 E-score
68 | AACGGCCC | -0.253 E-score
69 | AGTCTTAA | -0.161 E-score
70 | ACAAACAT | 0.129 E-score
71 | AGGCGGAT | 0.206 E-score
72 | AGGCGGCG | -0.219 E-score
73 | AAGTCTCT | -0.189 E-score
74 | CAGCCGGG | -0.178 E-score
75 | AAGGTAAT | 0.217 E-score

Row | Sequence | binding signal
76 | AGTTGGCA | -0.136 E-score
77 | ATTTTCTA | 0.373 E-score
78 | AGGGAAGG | -0.322 E-score
79 | ACATATTC | 0.133 E-score
80 | AGCGAGTA | 0.0419 E-score
81 | CAGAGAGC | -0.273 E-score
82 | AGCTCACC | -0.199 E-score
83 | AAACTTCT | -0.00267 E-score
84 | AGGGATGC | -0.218 E-score
85 | AAAGAGAC | -0.241 E-score
86 | AGTCTGCG | -0.226 E-score
87 | ACGGAGTA | 0.0215 E-score
88 | ATGGTGCG | -0.0961 E-score
89 | ATACTAAG | -0.00119 E-score
90 | CACGCTGA | -0.0321 E-score
91 | ACCTTAAT | 0.0597 E-score
92 | AACGGATT | 0.392 E-score
93 | AAGCTGGC | -0.269 E-score
94 | CAAGCTTG | -0.212 E-score
95 | AGAACAAT | 0.205 E-score
96 | AACATCTA | 0.0998 E-score
97 | AGAGGAAT | 0.21 E-score
98 | AGGGAAGA | -0.131 E-score
99 | AGGTATCG | 0.0281 E-score
100 | AATGGCCT | -0.114 E-score

Row | Sequence | binding signal
101 | CACCACAA | 0.112 E-score
102 | AGACTCTG | -0.105 E-score
103 | AGAGACTA | -0.12 E-score
104 | AATAAGTG | 0.0355 E-score
105 | ACTCGATA | 0.093 E-score
106 | AATTGCTA | 0.194 E-score
107 | AAGTAACT | -0.113 E-score
108 | CAATATGG | 0.142 E-score
109 | ATTACTGA | 0.149 E-score
110 | CACCCCCA | -0.186 E-score
111 | AAATATAA | 0.208 E-score
112 | AAAGGAGT | 0.00548 E-score
113 | AAGAACGC | -0.137 E-score
114 | AATGCTGT | 0.00548 E-score
115 | ATGGACGG | -0.102 E-score
116 | CAACCCAA | -0.00184 E-score
117 | ACACACCC | -0.161 E-score
118 | AGAAAATG | 0.185 E-score
119 | ACCTGGTA | -0.214 E-score
120 | ACACCTCG | -0.0851 E-score
121 | ATCCGCGA | 0.316 E-score
122 | AGCTTACC | -0.129 E-score
123 | AAGGTAGC | -0.233 E-score
124 | AATCTCGG | 0.429 E-score
125 | AAAAGCCC | -0.223 E-score

Row | Sequence | binding signal
126 | ATGCATTG | -0.016 E-score
127 | AATTGCAA | 0.132 E-score
128 | ATTACAAA | 0.302 E-score
129 | CAATCCTA | 0.288 E-score
130 | ACCTGCAC | -0.121 E-score
131 | ACTCAGAG | -0.11 E-score
132 | ACCCTCGT | -0.0628 E-score
133 | ACTGCGGA | -0.0687 E-score
134 | CAATTGGG | 0.00496 E-score
135 | AGACGTAA | 0.0108 E-score
136 | AACCAATA | -0.0751 E-score
137 | CAAGGTGA | -0.196 E-score
138 | AATGACTA | -0.017 E-score
139 | AGGAAGAT | 0.276 E-score
140 | ATAAATTC | 0.214 E-score
141 | AGACGTGG | -0.236 E-score
142 | AACTAAGG | -0.0967 E-score
143 | CACTATAG | -0.0506 E-score
144 | AGTATAGC | -0.175 E-score
145 | AATGGCAG | 0.00216 E-score
146 | AGGAAATG | -0.0795 E-score
147 | ATACCGTC | -0.0102 E-score
148 | AGAGAACG | -0.212 E-score
149 | ATCGCTGA | 0.124 E-score
150 | AACCCTCT | -0.229 E-score

Row | Sequence | binding signal
151 | AGTTGAGG | -0.181 E-score
152 | ACCAATGC | -0.192 E-score
153 | AACGAGAG | -0.00998 E-score
154 | CAACCGTC | -0.0671 E-score
155 | ACATAATG | -0.0391 E-score
156 | ACGACACT | -0.0924 E-score
157 | AGTGTCCG | -0.168 E-score
158 | CAAATTAC | 0.275 E-score
159 | ACTACGCC | -0.257 E-score
160 | AGTGTTGC | 0.0344 E-score
161 | AGTGTAGC | -0.0709 E-score
162 | ACTCCGAG | -0.115 E-score
163 | AATTGGCG | 0.111 E-score
164 | CAGACTTC | -0.216 E-score
165 | ATTGCTGC | -0.0186 E-score
166 | AACAGTGG | 0.00865 E-score
167 | AGGGACCC | -0.418 E-score
168 | ATTGTATA | 0.192 E-score
169 | AGACGTGA | -0.0897 E-score
170 | AATCTTCT | 0.41 E-score
171 | AAGCAACC | -0.266 E-score
172 | AATCGCAT | 0.274 E-score
